{"source": "the supplement of paper PMC8728848", "binders": {"B1": {"name": "Gal 8 (Homo sapiens) (protein)", "chain": "MLSLNNLQNIIYNPVIPYVGTIPDQLDPGTLIVICGHVPSDADRFQVDLQNGSSVKPRADVAFHFNPRFKRAGCIVCNTLINEKWGREEITYDTPFKREKSFEIVIMVLKDKFQVAVNGKHTLLYGHRIGPEKIDTLGIYGKVNIHSIGFSFSSDLQSTQASSLELTEISRENVPKSGTPQLQTVSPSWDLQGHGSETFCSVLWTRVFLEIAFCRPIGLTVASFQSLPFAARLNTPMGPGRTVVVKGEVNANAKSFNVDLLAGKSKDIALHLNPRLNIKAFVRNSFLQESWGEEERNITSFPFSPGMYFEMIIYCDVREFKVAVNGVHSLEYKHRFKELSSIDTLEINGDIHLLEVRSW"}}, "test_in_all_cases": "glycan array binding signal (z-score within array); higher = stronger binding", "settings_in_all_cases": "glycan notation: IUPAC condensed, linker removed", "key": {"[1]": {"biological_target": "Fuc(a1-2)Gal(b1-4)[Fuc(a1-3)]GlcNAc", "method_in_brief": "(§1)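 The binding signal is a Z-score computed within each array. Data were drawn from 3228 arrays in the Consortium for Functional Glycomics database, restricted to those with a known protein sequence. Scores were averaged over arrays of the same protein sequence at different concentrations or buffers, and over linkers, and negative values can be taken as non-binding.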"}, "[2]": {"biological_target": "Fuc(a1-2)Gal(b1-4)[Fuc(a1-3)]GlcNAc(b1-2)Man(a1-3)[Fuc(a1-2)Gal(b1-4)[Fuc(a1-3)]GlcNAc(b1-2)Man(a1-6)]Man(b1-4)GlcNAc(b1-4)[Fuc(a1-6)]GlcNAc", "method_in_brief": "as §1"}, "[3]": {"biological_target": "Fuc(a1-2)Gal(b1-4)[Fuc(a1-3)]GlcNAc(b1-2)[Fuc(a1-2)Gal(b1-4)[Fuc(a1-3)]GlcNAc(b1-4)]Man(a1-3)[Fuc(a1-2)Gal(b1-4)[Fuc(a1-3)]GlcNAc(b1-2)Man(a1-6)]Man(b1-4)GlcNAc(b1-4)GlcNAc", "method_in_brief": "as §1"}, "[4]": {"biological_target": "Fuc(a1-2)Gal(b1-4)[Fuc(a1-3)]GlcNAc(b1-3)Gal(b1-4)[Fuc(a1-3)]GlcNAc", "method_in_brief": "as §1"}, "[5]": {"biological_target": "Fuc(a1-2)Gal(b1-4)[Fuc(a1-3)]GlcNAc(b1-3)Gal(b1-4)[Fuc(a1-3)]GlcNAc(b1-3)Gal(b1-4)[Fuc(a1-3)]GlcNAc", "method_in_brief": "as §1"}, "[6]": {"biological_target": "Fuc(a1-2)Gal(b1-4)[Fuc(a1-3)]GlcNAc(b1-3)GalNAc", "method_in_brief": "as §1"}, "[7]": {"biological_target": "Fuc(a1-2)Gal(b1-4)[Fuc(a1-3)]GlcNAc(b1-3)[Neu5Ac(a2-6)Gal(b1-4)GlcNAc(b1-6)]Gal(b1-4)Glc", "method_in_brief": "as §1"}, "[8]": {"biological_target": "Fuc(a1-2)Gal3S(b1-4)GlcNAc", "method_in_brief": "as §1"}, "[9]": {"biological_target": "Fuc(a1-2)Gal6S(b1-3)GlcNAc", "method_in_brief": "as §1"}, "[10]": {"biological_target": "Fuc(a1-2)Gal6S(b1-3)GlcNAc6S", "method_in_brief": "as §1"}, "Fuc(a1-2)Gal6S(b1-4)Glc": {"biological_target": "Fuc(a1-2)Gal6S(b1-4)Glc", "method_in_brief": "as §1"}, "[11]": {"biological_target": "Fuc(a1-2)Gal6S(b1-4)Glc6S", "method_in_brief": "as §1"}, "[12]": {"biological_target": "Fuc(a1-2)Gal6S(b1-4)GlcNAc", "method_in_brief": "as §1"}, "Fuc(a1-2)GlcNAc": {"biological_target": "Fuc(a1-2)GlcNAc", "method_in_brief": "as §1"}, "Fuc(a1-2)[Gal(a1-3)]Gal": {"biological_target": "Fuc(a1-2)[Gal(a1-3)]Gal", "method_in_brief": "as §1"}, "[13]": {"biological_target": "Fuc(a1-2)[Gal(a1-3)]Gal(b1-3)GalNAc", "method_in_brief": "as §1"}, "[14]": {"biological_target": "Fuc(a1-2)[Gal(a1-3)]Gal(b1-3)GalNAc(b1-3)Gal(a1-4)Gal(b1-4)Glc", "method_in_brief": "as §1"}, "[15]": {"biological_target": "Fuc(a1-2)[Gal(a1-3)]Gal(b1-3)GlcNAc", "method_in_brief": "as §1"}, "[16]": {"biological_target": "Fuc(a1-2)[Gal(a1-3)]Gal(b1-3)GlcNAc(b1-2)Man(a1-3)[Fuc(a1-2)[Gal(a1-3)]Gal(b1-3)GlcNAc(b1-2)Man(a1-6)]Man(b1-4)GlcNAc(b1-4)GlcNAc", "method_in_brief": "as §1"}, "[17]": {"biological_target": "Fuc(a1-2)[Gal(a1-3)]Gal(b1-3)GlcNAc(b1-2)Man(a1-3)[Fuc(a1-2)[Gal(a1-3)]Gal(b1-3)GlcNAc(b1-2)Man(a1-6)]Man(b1-4)GlcNAc(b1-4)[Fuc(a1-6)]GlcNAc", "method_in_brief": "as §1"}, "[18]": {"biological_target": "Fuc(a1-2)[Gal(a1-3)]Gal(b1-3)GlcNAc(b1-3)GalNAc", "method_in_brief": "as §1"}, "[19]": {"biological_target": "Fuc(a1-2)[Gal(a1-3)]Gal(b1-3)GlcNAc(b1-6)GalNAc", "method_in_brief": "as §1"}, "[20]": {"biological_target": "Fuc(a1-2)[Gal(a1-3)]Gal(b1-4)Glc", "method_in_brief": "as §1"}, "[21]": {"biological_target": "Fuc(a1-2)[Gal(a1-3)]Gal(b1-4)GlcNAc", "method_in_brief": "as §1"}, "[22]": {"biological_target": "Fuc(a1-2)[Gal(a1-3)]Gal(b1-4)GlcNAc(b1-2)Man", "method_in_brief": "as §1"}, "[23]": {"biological_target": "Fuc(a1-2)[Gal(a1-3)]Gal(b1-4)GlcNAc(b1-2)Man(a1-3)[Fuc(a1-2)[Gal(a1-3)]Gal(b1-4)GlcNAc(b1-2)Man(a1-6)]Man(b1-4)GlcNAc(b1-4)GlcNAc", "method_in_brief": "as §1"}, "[24]": {"biological_target": "Fuc(a1-2)[Gal(a1-3)]Gal(b1-4)GlcNAc(b1-2)Man(a1-3)[Fuc(a1-2)[Gal(a1-3)]Gal(b1-4)GlcNAc(b1-2)Man(a1-6)]Man(b1-4)GlcNAc(b1-4)[Fuc(a1-6)]GlcNAc", "method_in_brief": "as §1"}, "[25]": {"biological_target": "Fuc(a1-2)[Gal(a1-3)]Gal(b1-4)GlcNAc(b1-3)GalNAc", "method_in_brief": "as §1"}, "[26]": {"biological_target": "Fuc(a1-2)[Gal(a1-3)]Gal(b1-4)GlcNAc(b1-6)GalNAc", "method_in_brief": "as §1"}, "[27]": {"biological_target": "Fuc(a1-2)[Gal(a1-3)]Gal(b1-4)[Fuc(a1-3)]Glc", "method_in_brief": "as §1"}, "[28]": {"biological_target": "Fuc(a1-2)[Gal(a1-3)]Gal(b1-4)[Fuc(a1-3)]GlcNAc", "method_in_brief": "as §1"}, "[29]": {"biological_target": "Fuc(a1-2)[Gal(a1-3)]Gal(b1-4)[Fuc(a1-3)]GlcNAc(b1-3)GalNAc", "method_in_brief": "as §1"}, "[30]": {"biological_target": "Fuc(a1-2)[Gal(a1-4)]Gal(b1-4)GlcNAc", "method_in_brief": "as §1"}, "[31]": {"biological_target": "Fuc(a1-2)[GalNAc(a1-3)]Gal", "method_in_brief": "as §1"}, "[32]": {"biological_target": "Fuc(a1-2)[GalNAc(a1-3)]Gal(b1-3)GalNAc(a1-3)[Fuc(a1-2)]Gal(b1-4)GlcNAc", "method_in_brief": "as §1"}, "[33]": {"biological_target": "Fuc(a1-2)[GalNAc(a1-3)]Gal(b1-3)GalNAc(b1-3)Gal(a1-4)Gal(b1-4)Glc", "method_in_brief": "as §1"}, "[34]": {"biological_target": "Fuc(a1-2)[GalNAc(a1-3)]Gal(b1-3)GlcNAc", "method_in_brief": "as §1"}, "[35]": {"biological_target": "Fuc(a1-2)[GalNAc(a1-3)]Gal(b1-3)GlcNAc(b1-2)Man(a1-3)[Fuc(a1-2)[GalNAc(a1-3)]Gal(b1-3)GlcNAc(b1-2)Man(a1-6)]Man(b1-4)GlcNAc(b1-4)GlcNAc", "method_in_brief": "as §1"}}, "note": "This is one part of the list."}
{"binder": "B1", "values": [{"measurement": "glycan array binding signal (z-score)", "setting": "[1]", "result": -0.387}, {"measurement": "glycan array binding signal (z-score)", "setting": "[2]", "result": -0.354}, {"measurement": "glycan array binding signal (z-score)", "setting": "[3]", "result": -0.355}, {"measurement": "glycan array binding signal (z-score)", "setting": "[4]", "result": -0.339}, {"measurement": "glycan array binding signal (z-score)", "setting": "[5]", "result": -0.38}, {"measurement": "glycan array binding signal (z-score)", "setting": "[6]", "result": -0.354}, {"measurement": "glycan array binding signal (z-score)", "setting": "[7]", "result": -0.356}, {"measurement": "glycan array binding signal (z-score)", "setting": "[8]", "result": -0.354}, {"measurement": "glycan array binding signal (z-score)", "setting": "[9]", "result": -0.353}, {"measurement": "glycan array binding signal (z-score)", "setting": "[10]", "result": -0.353}, {"measurement": "glycan array binding signal (z-score)", "setting": "Fuc(a1-2)Gal6S(b1-4)Glc", "result": -0.333}, {"measurement": "glycan array binding signal (z-score)", "setting": "[11]", "result": -0.322}, {"measurement": "glycan array binding signal (z-score)", "setting": "[12]", "result": -0.363}, {"measurement": "glycan array binding signal (z-score)", "setting": "Fuc(a1-2)GlcNAc", "result": -0.751}, {"measurement": "glycan array binding signal (z-score)", "setting": "Fuc(a1-2)[Gal(a1-3)]Gal", "result": -0.354}, {"measurement": "glycan array binding signal (z-score)", "setting": "[13]", "result": -0.261}, {"measurement": "glycan array binding signal (z-score)", "setting": "[14]", "result": -0.297}, {"measurement": "glycan array binding signal (z-score)", "setting": "[15]", "result": 1.79}, {"measurement": "glycan array binding signal (z-score)", "setting": "[16]", "result": 0.879}, {"measurement": "glycan array binding signal (z-score)", "setting": "[17]", "result": 0.461}, {"measurement": "glycan array binding signal (z-score)", "setting": "[18]", "result": 0.029}, {"measurement": "glycan array binding signal (z-score)", "setting": "[19]", "result": 0.407}, {"measurement": "glycan array binding signal (z-score)", "setting": "[20]", "result": 4.4}, {"measurement": "glycan array binding signal (z-score)", "setting": "[21]", "result": 2.59}, {"measurement": "glycan array binding signal (z-score)", "setting": "[22]", "result": 0.115}, {"measurement": "glycan array binding signal (z-score)", "setting": "[23]", "result": 4.31}, {"measurement": "glycan array binding signal (z-score)", "setting": "[24]", "result": 2.46}, {"measurement": "glycan array binding signal (z-score)", "setting": "[25]", "result": 0.006}, {"measurement": "glycan array binding signal (z-score)", "setting": "[26]", "result": -0.355}, {"measurement": "glycan array binding signal (z-score)", "setting": "[27]", "result": -0.354}, {"measurement": "glycan array binding signal (z-score)", "setting": "[28]", "result": -0.374}, {"measurement": "glycan array binding signal (z-score)", "setting": "[29]", "result": -0.356}, {"measurement": "glycan array binding signal (z-score)", "setting": "[30]", "result": -0.385}, {"measurement": "glycan array binding signal (z-score)", "setting": "[31]", "result": -0.371}, {"measurement": "glycan array binding signal (z-score)", "setting": "[32]", "result": 1.72}, {"measurement": "glycan array binding signal (z-score)", "setting": "[33]", "result": -0.211}, {"measurement": "glycan array binding signal (z-score)", "setting": "[34]", "result": 1.81}, {"measurement": "glycan array binding signal (z-score)", "setting": "[35]", "result": 2.32}]}
